Laboratory results: PubChem BioAssay AID504332 (National Center for Advancing Translational Sciences (NCATS), 2011)
The whole screen tested about 350,000 compounds, of which about 31,000 (8.9%) were called active. This list was built around the results that the source calls inconclusive (neither active nor inactive); the mix of calls is not that of the screen. Calls follow the shape of the dose curve; as a rule, active = well fitted inhibition curve with a large enough effect; inconclusive = small, poorly fitted or top-dose-only effect; inactive = no such curve, though single readings can be large or run the other way. Potencies of inconclusive entries are doubtful fits and often do not repeat.

These molecules were tested against Histone-lysine N-methyltransferase EHMT2 (Homo sapiens) (UniProt Q96KQ7) (assay: qHTS Assay for Inhibitors of Histone Lysine Methyltransferase G9a). Conditions: G9a H3K9 monomethylation, AlphaScreen, 2 h; activity, negative = inhibition: at 59 µM (top of the series) unless noted.
How it was run: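 Methyltransferase reactions run at room temperature for 2 h (20 nM enzyme, 500 nM biotin-H3K9 peptide, 20 uM SAM) after a 15 min compound preincubation; product detected by AlphaScreen beads and anti-H3K9me1 antibody.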
% is scaled to controls: 0 for no effect and ±100 for the full control effect; potency is read from the fitted curve at half-maximal effect; tags tell the direction and shape of the fitted curve.
Also: nearly all actives have a fitted effect of over 75% in size.

Sequence of UniProt Q96KQ7 (Q96KQ7 whole entry, looked up): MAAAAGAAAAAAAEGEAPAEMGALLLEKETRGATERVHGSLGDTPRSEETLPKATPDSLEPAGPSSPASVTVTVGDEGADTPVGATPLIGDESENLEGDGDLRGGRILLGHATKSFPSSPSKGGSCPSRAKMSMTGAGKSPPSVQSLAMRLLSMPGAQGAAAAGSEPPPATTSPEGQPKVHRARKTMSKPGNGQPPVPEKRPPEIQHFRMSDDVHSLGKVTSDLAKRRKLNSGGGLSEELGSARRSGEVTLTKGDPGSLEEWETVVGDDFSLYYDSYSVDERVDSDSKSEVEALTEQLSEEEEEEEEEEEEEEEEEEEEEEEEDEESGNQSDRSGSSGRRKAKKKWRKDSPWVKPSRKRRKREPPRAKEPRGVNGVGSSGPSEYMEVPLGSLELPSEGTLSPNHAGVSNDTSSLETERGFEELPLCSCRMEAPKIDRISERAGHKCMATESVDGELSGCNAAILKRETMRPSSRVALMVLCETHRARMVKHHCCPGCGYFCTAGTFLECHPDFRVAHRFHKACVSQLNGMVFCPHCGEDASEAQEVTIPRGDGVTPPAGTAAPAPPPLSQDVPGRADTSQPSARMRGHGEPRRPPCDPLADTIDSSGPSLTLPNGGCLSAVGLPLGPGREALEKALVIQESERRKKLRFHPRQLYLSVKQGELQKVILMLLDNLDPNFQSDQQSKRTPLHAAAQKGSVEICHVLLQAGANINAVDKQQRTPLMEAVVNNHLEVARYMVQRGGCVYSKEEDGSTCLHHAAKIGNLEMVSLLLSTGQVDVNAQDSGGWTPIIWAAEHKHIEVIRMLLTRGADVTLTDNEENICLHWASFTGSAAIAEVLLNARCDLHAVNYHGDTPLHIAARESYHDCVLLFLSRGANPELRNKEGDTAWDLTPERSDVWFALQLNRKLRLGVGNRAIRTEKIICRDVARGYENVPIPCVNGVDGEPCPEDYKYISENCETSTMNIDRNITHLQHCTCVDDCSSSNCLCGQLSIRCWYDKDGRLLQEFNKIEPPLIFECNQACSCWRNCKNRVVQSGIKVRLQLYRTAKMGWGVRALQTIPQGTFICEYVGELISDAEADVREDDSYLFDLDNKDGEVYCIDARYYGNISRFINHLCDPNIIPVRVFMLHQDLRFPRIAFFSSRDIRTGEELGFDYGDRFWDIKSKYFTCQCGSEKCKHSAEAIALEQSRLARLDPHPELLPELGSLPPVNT

Row | SMILES | Potency | activity, negative = inhibition
1 | COc1ccc(C2CC(c3ccc(Br)cc3)=NN2C(=S)Nc2ccccc2)cc1 (stereo unspecified) | active: 2 µM | –
2 | CN(C(=O)CSc1cc(C(=O)c2nccn2C)c2ccccc2n1)c1ccccc1 | inactive | –
3 | COc1ccccc1Cn1ccn(Cc2ccc(C)cc2)c(=O)c1=O | inconclusive: 28.2 µM [inhibitor, partial curve, poor fit] | –
4 | Cc1ccc(NC(=O)CN2C(=O)C3CC=C(Cl)CC3C2=O)cc1 (stereo unspecified) | inactive | –
5 | Cc1cc(NC(=O)C(C)Oc2ccccc2)no1 (stereo unspecified) | inactive | –
6 | O=C(Nc1nnc(-c2ccccc2Cl)o1)c1ccco1 | – | inconclusive: -75.4% [inhibitor]
7 | Cc1ccccc1C(=O)NC(C(N)=O)P(=O)(OC(C)C)OC(C)C (stereo unspecified) | inactive | –
8 | CC(OC(=O)c1cc(=O)c2ccccc2o1)C(=O)Nc1ccc(N(C)C)cc1 (stereo unspecified) | active: 3.16 µM | –
9 | COc1cc(S(=O)(=O)N(Cc2ccccc2)Cc2ccccn2)ccc1-n1cnnn1 | inconclusive: 10 µM [inhibitor, partial curve, poor fit] | –
10 | O=C(NCC1CCN(c2ccc(S(=O)(=O)N3CCOCC3)cc2)CC1)c1ccc(Cl)cc1 | inconclusive: 89.1 µM [inhibitor, single point] | –
11 | O=C(CNC(=O)c1ccc(Br)cc1)OCC(=O)c1ccccc1 | inconclusive: 17.8 µM [inhibitor, partial curve, poor fit] | –
12 | Cc1nc(N2CCCCC2)c2sc(=S)n(C)c2n1 | inconclusive: 31.6 µM [inhibitor, single point] | –
13 | Cc1ccccc1OCc1nc2c3cnn(-c4ccccc4F)c3ncn2n1 | inactive | –
14 | COc1ccc2[nH]c(=O)c(CN(C(C)=O)C3CCCCC3)cc2c1 | inactive | –
15 | COc1ccc(NC(=O)c2sc3nc4c(cc3c2N)CCCCCC4)cc1 | inconclusive: 8.91 µM [inhibitor, partial curve, poor fit] | –
16 | COc1cccc(OCCSc2nc3ccccc3c(=O)[nH]2)c1 | inconclusive: 56.2 µM [inhibitor, partial curve, poor fit] | –
17 | CCOC(=O)c1ccc(CNC(=O)CSc2nnc(-c3ccncc3)o2)cc1 | inconclusive: 3.16 µM [inhibitor, partial curve, poor fit] | –
18 | CN(C)CCCNC(=O)c1ccc(-c2cc(O)c3ncccc3c2)cc1 | – | inactive: 4.82% [at 12.7 µM]
19 | CCOC(=O)c1c(NC(=O)c2nn(CC)cc2Br)sc(C)c1C | – | inconclusive: -79.1% [inhibitor]
20 | O=C(Cc1ccccc1)NC1CCN(Cc2ccccc2)CC1 | inconclusive: 35.5 µM [inhibitor, partial curve] | –
21 | COC(=O)c1[nH]c2ccc(C)cc2c1NC(=O)NC1CCCCC1 | inconclusive: 79.4 µM [inhibitor, single point] | –
22 | COc1ccccc1N1CCN(C(=O)Cc2cccs2)CC1 | – | inactive: -1.64% [at 2.33 µM]
23 | CC(C)CCNC(=O)C(NS(=O)(=O)c1ccc2c(c1)c(=O)n(C)c(=O)n2C)c1ccccc1 (stereo unspecified) | active: 8.91 µM | –
24 | Cn1c(C(=O)O)c(C=O)c2ccccc21 | inconclusive: 89.1 µM [inhibitor, single point] | –

Row | SMILES | Potency | activity, negative = inhibition
25 | CCS(=O)(=O)c1c([N+](=O)[O-])ncn1C | inconclusive: 6.31 µM [inhibitor, single point] | –
26 | COc1ccc(CNC(=O)c2ccc(Br)s2)cc1OC | inconclusive: 3.16 µM [inhibitor, partial curve, poor fit] | –
27 | Cc1ccc(Cl)cc1N1CCN(C(=O)Cn2c(-c3cccs3)cc3cc(F)ccc32)CC1 | inactive | –
28 | Cc1ccc(N(C)S(=O)(=O)c2cccc(C(=O)Nc3ccc(N4CCOCC4)cc3)c2)cc1 | inconclusive: 3.98 µM [inhibitor, single point] | –
29 | CCCCCNc1nc(N2CCCC2)c2c(c1C#N)CCN(C)C2 | active: 50.1 µM | –
30 | CCc1ccc(OCC(=O)Nc2cc(-c3ccc(C)cc3)no2)cc1 | inactive | –
31 | Cc1ccccc1-c1cc(N(C)Cc2ccco2)ncn1 | – | inactive: 6.14% [at 0.501 µM]
32 | CCOC(=O)c1sc(NC(=O)CC)nc1C | inactive | –
33 | C1=C(CCNC2=NCCCCC2)CCCC1 | inconclusive: 0.631 µM [inhibitor, full curve, poor fit] | –
34 | COc1cc(/C=C2\C(=O)ON=C2c2ccccc2)cc(Br)c1O | active: 35.5 µM | –
35 | COC(=O)c1sccc1S(=O)(=O)N1CCN(c2ccc(C)cc2C)CC1 | inactive | –
36 | CC(C)(C)C(=O)NC(=S)NNC(=O)c1ccc(-c2ccccc2)cc1 | inconclusive: 44.7 µM [inhibitor, partial curve, poor fit] | –
37 | N#CC1=C(N)N2C(=C(C#N)C1c1cccc(Br)c1)Nc1ccccc12 (stereo unspecified) | active: 10 µM | –
38 | O=c1[nH]c2ccc(NC(=S)Nc3ccc(F)cc3)cc2[nH]1 | inconclusive: 39.8 µM [inhibitor, partial curve] | –
39 | COc1ccccc1C1=NNC(=NCc2ccccc2)SC1 | inconclusive: 44.7 µM [inhibitor, partial curve] | –
40 | O=c1cc(-c2ccccc2)[nH]n2cnnc12 | inconclusive: 79.4 µM [inhibitor, partial curve] | –
41 | O=C(NCc1cccc(Cl)c1)c1ccco1 | inconclusive: 31.6 µM [inhibitor, single point] | –
42 | COCCn1c(SC(C)C(=O)NCC2CCCO2)nc2sc3c(c2c1=O)CCC3 (stereo unspecified) | inconclusive: 50.1 µM [inhibitor, partial curve] | –
43 | COc1ccc(-c2cc(C(=O)N3CCN(c4ccccc4)CC3)c3ccccc3n2)cc1OC | – | inconclusive: -58.3% [inhibitor]
44 | Cc1cc(=O)oc2cc(OCC(=O)N/N=C/c3ccccc3[N+](=O)[O-])ccc12 | inconclusive: 89.1 µM [inhibitor, single point] | –
45 | CCN1CCCC1CNCc1cc(OC)c(OC)c(OC)c1 (stereo unspecified) | inconclusive: 10 µM [inhibitor, partial curve] | –
46 | COc1ccc(C2=NN(C(C#N)c3ccc(OC)cc3)C(c3ccccc3)C2)cc1 (stereo unspecified) | inactive | –
47 | Cc1ccc(N2CC(C(=O)Nc3nnc(SCCN4CCOCC4)s3)CC2=O)cc1 (stereo unspecified) | inconclusive: 79.4 µM [inhibitor, partial curve, poor fit] | –
48 | Cc1ccc2nc(-c3ccccn3)[nH]c2c1 | inconclusive: 89.1 µM [inhibitor, single point] | –

Row | SMILES | Potency | activity, negative = inhibition
49 | CSc1ccc(CN2CCCC(N3CCN(c4ccccc4)CC3)C2)cc1 (stereo unspecified) | inactive | –
50 | Clc1ccc(Nc2nc3cccnc3s2)cc1 | inconclusive: 44.7 µM [inhibitor, single point] | –
51 | Cc1ccc(C2c3c(oc4ccccc4c3=O)C(=O)N2CCCN2CCOCC2)o1 (stereo unspecified) | – | inconclusive: -75.1% [inhibitor]
52 | Cc1cc(C)n2nc(SCc3ccccc3C(=O)O)nc2n1 | inconclusive: 50.1 µM [inhibitor, partial curve, poor fit] | –
53 | Cc1ccc(S(=O)(=O)N(C)/C(=N/S(=O)(=O)c2ccccc2)c2ccccc2)cc1 | inconclusive: 6.31 µM [inhibitor, full curve, poor fit] | –
54 | C/C(CC(=O)Nc1ccc(N(C)C)cc1)=N\NC(=O)c1ccccn1 | active: 50.1 µM | –
55 | CCOc1ccc(CCNC(=O)c2cc3c(=O)n(C)c4ccccc4c3n2C)cc1OCC | inconclusive: 44.7 µM [inhibitor, partial curve, poor fit] | –
56 | CC(C)NCCOCCOc1ccccc1F | active: 4.47 µM | –
57 | CCOc1ccccc1-n1c(COc2ccccc2)nnc1SCC(N)=O | inconclusive: 0.447 µM [inhibitor, partial curve, poor fit] | –
58 | CCN(CC)S(=O)(=O)c1ccc(N2CCN(CCOc3ccc(OC)cc3)CC2)nc1 | inactive | –
59 | CCOc1ccccc1NS(=O)(=O)c1ccc2[nH]c3c(c2c1)CCCCC3 | inconclusive: 22.4 µM [inhibitor, single point] | –
60 | COc1ccc(S(=O)(=O)N(CC(=O)Nc2cc(C)ccc2OC)Cc2ccccc2)cc1 | inconclusive: 39.8 µM [inhibitor, single point] | –
61 | O=C(/C=C/c1cccs1)N1CCC2(CC1)Oc1ccc(Cl)cc1C(=O)C21CC(c2ccccc2)=NO1 (stereo unspecified) | – | inactive: -31.7% [at 12.7 µM]
62 | CC(=O)c1ccc(C(=O)Nc2sc3c(c2C(N)=O)CCN(Cc2ccccc2)C3)cc1 | inconclusive: 56.2 µM [inhibitor, single point] | –
63 | O=C(CNS(=O)(=O)c1c(F)cc(F)cc1Br)OCC(=O)N1CCCC1=O | – | inactive: 0.0523% [at 0.501 µM]
64 | CCCCC1(C(=O)OCC)CC(CN2CCOCC2)OC1=O (stereo unspecified) | inconclusive: 1.78 µM [inhibitor, full curve, poor fit] | –
65 | CSc1cccc(NC(=O)C2CCCN(C(=O)c3cnn(-c4ccc(F)cc4)c3-n3cccc3)C2)c1 (stereo unspecified) | inactive | –
66 | S=C1NC[C@H](Cc2ccccc2)N1CCc1cccc2ccccc12 | inconclusive: 1.41 µM [inhibitor, single point] | –
67 | O=C1c2ccc(Br)cc2C(=O)N1c1ccc(Cc2ccncc2)cc1 | inconclusive: 89.1 µM [inhibitor, partial curve, poor fit] | –
68 | CC(C)CNC(=O)NC(=O)COC(=O)c1ccccc1Sc1ccc(C(F)(F)F)cc1[N+](=O)[O-] | inconclusive: 89.1 µM [inhibitor, single point] | –
69 | O=C(O)c1cccc(Cn2c(Cl)c(/C=N/NC(=O)c3ccc(O)cc3)sc2=O)c1 | inconclusive: 89.1 µM [inhibitor, single point] | –
70 | N#C/C(=C\c1cccc(F)c1)c1nc(-c2cc3c(ccc4ccccc43)oc2=O)cs1 | inactive | –
71 | COC(=O)C1=C(C)NC(=S)NC1c1ccc(OCC(=O)N2CC(C)OC(C)C2)c(OC)c1 (stereo unspecified) | – | inactive: -3.57% [at 12.7 µM]
